From patent publication EP4474016A1, “STRATEGIES TO TARGET EXTRACELLULARLY ACCESSIBLE RAS PROTEIN” (Julius-Maximilians-Universität Würzburg, priority 2023, dated 2024)

Target: Ras protein on the extracellular surface of the plasma membrane of human tumour cells (human), P01111
Test: cell-based or functional assay

B1: SFV02_PCC06 anti-Ras bispecific antibody (bispecific antibody)
chain 1: GPGAEVQLVESGGGLVQPGGSLRLSCAASGYSFTGYTMNWVRQAPGKGLEWVALINPYKGVSTYNQKFKDRFTISVDKSKNTAYLQMNSLRAEDTAVYYCARSGYYGDSDWYFDVWGQGTLVTVSSGGGGSGGGGSGGGGSDIQMTQSPSSLSASVGDRVTITCRASQDIRNYLNWYQQKPGKAPKLLIYYTSRLESGVPSRFSGSGSGTDYTLTISSLQPEDFATYYCQQGNTLPWTFGQGTKVEIKGSGGGGGS[letters of human IgG1 Fc with L234A L235A N297A P329A S354C T366W (EU numbers) left out]
chain 2: DKTHTCPPCPAPEAAGGPSVFLFPPKPKDTLMISRTPEVTCVVVDVSHEDPEVKFNWYVDGVEVHNAKTKPREEQYASTYRVVSVLTVLHQDWLNGKEYKCKVSNKALAAPIEKTISKAKGQPREPQVCTLPPSRDELTKNQVSLSCAVKGFYPSDIAVEWESNGQPENNYKTTPPVLDSDGSFFLVSKLTVDKSRWQQGNVFSCSVMHEALHNHYTQKSLSLSPGKGSGGSGSVSSVPTKLEVVAATPTSLLISWDAPAVTVDYYVITYGETGGNSPVQKFEVPGSKSTATISGLKPGVDYTITVYAWGWHGQVYYYMGSPISINYRTGSHHHHHHHH
For B1, the killing of MM.1S cells + T cells, antibody 3.125 nM with 1.5 uM Lenalidomide was 65%, the killing of MV4-11 cells + T cells, antibody 3.75 nM with 0.5% DMSO was 50% and the medium maximal killing rate of MM.1S cells + T cells, antibody 25 nM with 1.5 uM Lenalidomide was 80%. For the same binder, the medium maximal killing rate of MM.1S cells + T cells, antibody only, highest concentration was 35%, the medium maximal killing rate of MV4-11 cells + T cells, antibody 15 nM with 0.5% DMSO was 45% and the medium maximum killing rate of MV4-11 cells + T cells, antibody 15 nM only was 25%.
